# Data as given in PubChem BioAssay AID463173 (ICCB-Longwood Screening Facility, Harvard Medical School, 2010).
# Hit rate of the full screen: of about 52,000 compounds, about 4,300 (8.3%) were called active. Rule as the data show it: active = survival mostly below about 52% (no sharp cut-off); inactive = mostly above about 56%. The list shows a part of the results.
# Tested on: DeltatarO mutant
# Experiment: growth inhibition of S. aureus wild type versus tarO mutant, primary screen, teichoic acid synthesis inhibitors, RN4220, OD600 (AID 463173)
# Details: OD600, 18 h, active compounds read low, screened at 18.75 µg/mL (by protocol)
row,Structure (SMILES),survival
1,O=C(Nc1ccc(-c2nc3ccccc3o2)c(O)c1)c1cc(Cl)ccc1Cl,inactive: 50%
2,COc1cc(OC)cc(C(=O)Nc2ccc3nc4c(c(Nc5ccc(OC)c(OC)c5)c3c2)CCCC4)c1,inactive: 122%
3,O=C(NCC(c1cccnc1)N1CCc2ccccc2C1)C(=O)Nc1ccccc1F (stereo not drawn),inactive: 75%
4,CCN(C(=O)CCS(=O)(=O)c1ccc2c(c1)CCN2C(C)=O)c1cccc(C(F)(F)F)c1,inactive: 101%
5,Cc1ccc(/C=C/c2onc(C)c2S(=O)(=O)N2CCC(C(=O)Nc3ccc(OC(F)(F)F)cc3)CC2)cc1,inactive: 125%
6,COC(=O)c1ccc(NC(=O)Cn2ccn3nc(-c4ccc(OC)cc4)cc3c2=O)cc1,inactive: 94%
7,Cc1ccc(CNC(=O)CCc2c(C)nc3c(-c4ccc(F)cc4)c(C)nn3c2C)cc1,inactive: 83%
8,CCCN(CCC)C(=O)Cn1c(=O)n(CCCCCC(=O)Nc2ccccc2)c(=O)c2sccc21,inactive: 71%
9,COc1ccc2c(c1)c1c(c(=O)n(-c3ccccc3C)c(=O)n1CC(N)=O)n2C,inactive: 89%
10,Cc1nnc(C)n1/N=C/C=C/c1ccccc1,inactive: 62%
11,CCc1ccc2[nH]c(=O)c(CN(Cc3ccco3)C(=O)Nc3ccccc3)cc2c1,inactive: 45%
12,Cc1cccc(OCC(=O)Nc2cccc(C(=O)OCc3cc(=O)n4nc(C(C)C)sc4n3)c2)c1,inactive: 89%
13,Cc1ccc(S(=O)(=O)Nc2cc3c(C(=O)OCc4ccccc4)c(C)oc3c3ccccc23)c(C)c1,inactive: 56%
14,COc1cc(C(=O)N2CCNC(=O)C2CC(=O)Nc2ccc(C)c(C)c2)cc(OC)c1OC (stereo not drawn),inactive: 92%
15,Clc1cccc(CNNc2nc(N3CCCCC3)nc(N3CCCCC3)n2)c1,inactive: 98%
16,CCCCNc1nc2c(-c3cccc(C)c3)nnn2c2ccccc12,inactive: 98%
17,Cc1ccc(S(=O)(=O)C(CNC(=O)COc2ccccc2)c2cccs2)cc1 (stereo not drawn),inactive: 67%
18,COC(=O)C1=C(C)NC(=O)NC1c1cn(-c2ccccc2)nc1-c1ccc(OC)c(Br)c1 (stereo not drawn),inactive: 53%
19,CCCn1c(COc2cccc(C)c2)nc2ccccc21,active: 12%
20,O=c1oc2cc(O)ccc2cc1-c1nc(-c2ccc(Cl)c(Cl)c2)cs1,inactive: 101%
21,COc1cccc(-n2c(SCC(=O)c3ccccc3)nc3c([nH]c4ccccc43)c2=O)c1,inactive: 124%
22,CCc1sc(Nc2cccc(Cl)c2)nc1-c1cc2cccc(OC)c2oc1=O,inactive: 90%

row,Structure (SMILES),survival
1,O=C(/C=C/c1cccs1)NC1CCS(=O)(=O)C1 (stereo not drawn),inactive: 91%
2,Cc1c(C(=O)OCc2ccccc2)[nH]c2c1C(=O)CC(c1ccc(N(C)C)cc1)C2 (stereo not drawn),inactive: 82%
3,Cc1nn2c3c(cnc2c1-c1ccc(Cl)cc1)C(=O)CC(c1ccc(C(C)C)cc1)C3 (stereo not drawn),inactive: 85%
4,COc1ccc(NC(=O)CN2C(=O)C(C)(C)c3cc(S(=O)(=O)N4CCCCC4)ccc32)cc1Cl,inactive: 76%
5,Cc1ccc(C2=CC(c3ccccc3C)n3c(nc4ccccc43)N2)cc1 (stereo not drawn),inactive: 79%
6,CCc1ccc(NC(=O)C(=O)NCCc2csc(-c3cccc(F)c3)n2)cc1,inactive: 83%
7,CCOc1ccc(NC(=O)CSc2oc(-c3cccs3)nc2S(=O)(=O)c2ccc(C)cc2)cc1,inactive: 125%
8,CCn1nc(C)c2c(-c3ccccc3)cc(=O)n(C(C)C(=O)Nc3cccc(F)c3)c21 (stereo not drawn),inactive: 91%
9,Cc1nn(-c2ccc(N3CCOCC3)nn2)c(C)c1CCC(=O)NCc1ccccc1,inactive: 68%
10,COC(=O)C1CC(C)=CC(C)C1C(=O)O (stereo not drawn),inactive: 67%
11,Cc1cc(C)c(NC(=O)CSc2n[nH]c(-c3ccccc3Cl)n2)c(C)c1,inactive: 72%
12,Cc1ccn2c(Nc3ccccc3C)c(-c3ccc(N4CCOCC4)cc3)nc2c1,inactive: 89%
13,C=CCC1Cc2ccccc2C(CC=C)N1 (stereo not drawn),inactive: 94%
14,O=C(COc1ccc(Cl)cc1)NCC(c1ccco1)S(=O)(=O)c1ccccc1 (stereo not drawn),inactive: 77%
15,COc1ccccc1NC(=O)c1sc2nc3c(c(C(F)(F)F)c2c1N)CN(C(C)=O)CC3,inactive: 63%
16,Cc1ccccc1CCNC(=O)c1ccc(NC(=O)N2CC(C)Sc3ccccc32)cc1 (stereo not drawn),inactive: 67%
17,COc1ccc(NC(=O)c2cnc(Nc3ccc(C)c(Cl)c3)c3ccccc23)c(OC)c1,inactive: 63%
18,Cc1cc2ncn(S(=O)(=O)c3ccc(S(=O)(=O)NC4CCCCC4)cc3)c2cc1C,inactive: 99%
19,COc1ccc(CNc2nc(-c3ccc(OC)cc3)cc(C(F)(F)F)n2)cc1,active: -2%
20,CCCC(=O)N1CCc2cc(OC)c(OC)cc2C1COc1ccc2c(C)cc(=O)oc2c1 (stereo not drawn),inactive: 66%
21,COc1ccc2c(c1)CC(C(=O)NCCN1CCN(c3ccccc3F)CC1)CO2 (stereo not drawn),active: 47%
22,CCOc1ccc(NC(=O)Cn2cc(C(=O)c3ccc(CC)cc3)c(=O)c3cc4c(cc32)OCO4)cc1,inactive: 86%

row,Structure (SMILES),survival
1,Cc1ccc(Cl)cc1N1CCN(C(=O)c2cnn(C(C)(C)C)c2C2CCN(C(=O)OC(C)(C)C)CC2)CC1,inactive: 101%
2,CCCSc1ncc(Cl)c(C(=O)Nc2ccc(S(=O)(=O)N3CCC(C)CC3)cc2)n1,inactive: 52%
3,COc1ccc(N2CCN(C(=O)C3CCN(Cc4nc(-c5ccc(Cl)cc5)oc4C)CC3)CC2)cc1,inactive: 81%
4,CN(C)CCNC(=O)CN1N=C(c2ccccc2)CCC1=O,inactive: 134%
5,C=C(C)Cn1c(=O)c2c(nc3n2CCN3c2cc(C)cc(C)c2)n(C)c1=O,inactive: 81%
6,COc1cc(C2C(=O)N(C3CCCCCC3)CC(=O)N2Cc2ccccc2)ccc1OC(C)C (stereo not drawn),inactive: 88%
7,O=C(O)c1noc2c1CCCC2,inactive: 91%
8,COC(=O)c1ccc(NC(=O)CN(Cc2ccccc2)S(=O)(=O)c2ccc(C)cc2)cc1,active: 42%
9,CCN(C(=O)CSc1nc2ccccc2n1Cc1ccc(C(=O)OC)cc1)c1ccccc1,inactive: 92%
10,Cc1ccc2oc(=O)c(S(=O)(=O)c3ccc(F)cc3)cc2c1,inactive: 96%
11,COc1ccc(NC(=O)c2ccco2)cc1NC(=O)c1ccc(C)c(C)c1,active: 49%
12,COc1ccc(CCN2C(=O)NC(NC(=O)c3ccccc3OC)(C(F)(F)F)C2=O)cc1OC (stereo not drawn),inactive: 77%
13,CCC(Sc1ncc(S(=O)(=O)c2ccc(C)cc2)c(=O)[nH]1)C(=O)Nc1cc(C)ccc1C (stereo not drawn),inactive: 120%
14,CCc1ccc(NC(=O)CN2CCN(C3CCCCC3)C(=O)C2=O)cc1,inactive: 91%
15,Cc1ccc(/C=C(\C#N)C(=O)Nc2ccc(Br)cc2)o1,inactive: 76%
16,Cn1nnnc1SCCCNCc1cccc(OCc2ccccc2F)c1,inactive: 60%
17,O=C(Nc1c(C(=O)c2ccc(Cl)cc2)oc2ccccc12)c1cc(=O)c2ccccc2o1,inactive: 107%
18,Clc1ccc(Nc2nc(-c3ccccc3)c3ccccc3n2)c(Cl)c1,inactive: 72%
19,COc1ccccc1C(=O)Nc1cccc(OCc2cc(=O)n3c(C)csc3n2)c1,active: 44%
20,O=S(=O)(c1cc(Br)c(Br)s1)N1CCN(c2ccccc2)CC1,inactive: 72%
21,O=c1[nH]c(-c2ccccc2)nn1-c1ccc(Br)cc1Br,inactive: 102%
22,Cc1ccc(S(=O)(=O)c2nnn3c2nc(NCc2ccccc2)c2sccc23)cc1,inactive: 68%

row,Structure (SMILES),survival
1,Cc1ccccc1CN1C(=O)c2ccccc2Sc2ccc(C(=O)O)cc21,inactive: 112%
2,CCOc1ccc(NC(=O)CCc2nc3cccnc3n2Cc2ccc(OC)cc2)cc1,inactive: 64%
3,Cc1ccc(CS(=O)Cc2ccc(C(=O)NCc3ccccc3Cl)o2)cc1 (stereo not drawn),inactive: 84%
4,Cc1ccc(NC(=O)C2CCCN(c3cnccn3)C2)cc1Cl (stereo not drawn),inactive: 75%
5,Nc1nnc(SCC(=O)Nc2cccc(F)c2)s1,inactive: 195%
6,Cc1ccc(N(CC(=O)NC2CCCC2)C(=O)c2ccc(N3CCCC3)nc2)cc1,inactive: 89%
7,Cc1cccc(NC(=O)C2CCN(S(=O)(=O)c3ccc4[nH]c5c(c4c3)CCCCC5)CC2)c1,inactive: 78%
8,Cc1cc(C)cc(NC(=O)Cn2cc(C(=O)c3ccncc3)c(=O)c3cc(C)c(C)cc32)c1,inactive: 86%
9,CCc1cccc(C)c1NC(=O)C1CCN(c2nnc(C)c3c(C)n(-c4ccccc4)nc23)CC1,inactive: 77%
10,C=CCNCc1cccn1-c1ccccc1,inactive: 76%
11,CCOC(=O)C(C)C1(O)c2ccccc2-c2ncccc21 (stereo not drawn),inactive: 77%
12,COc1ccc(CNC(=O)C2CCN(S(=O)(=O)c3ccc4nc5c(c(C(=O)O)c4c3)CCCC5)CC2)cc1,inactive: 99%
13,COc1cccc(NC(=O)CCSc2nc(-c3ccco3)cc(C(F)(F)F)n2)c1,active: 27%
14,COc1ccc(-c2noc(N3CCN(c4ccc(Cl)cc4)CC3)n2)cc1OC,inactive: 80%
15,CCc1nn2c(=O)cc(COC(=O)c3cccc(NC(=O)COc4ccccc4)c3)nc2s1,inactive: 83%
16,CCOc1ccc(CCNC(=O)c2cc3cc4cc(OC)ccc4nc3s2)cc1OCC,inactive: 107%
17,CCOc1ccccc1NC(=O)C(=O)c1cc(C)n(-c2cccc(C)c2C)c1C,inactive: 68%
18,Cc1cccc(NC(=O)CCN2CCC(C)CC2)c1,inactive: 91%
19,COc1ccccc1NC(=O)C1=C(C)Nc2nc(SCc3ccccc3F)nn2C1c1ccncc1 (stereo not drawn),inactive: 153%
20,CC(C)Cc1nn2c(=O)cc(COC(=O)c3ccccc3NC(=O)c3cccs3)nc2s1,inactive: 67%
21,COc1ccc(OC)c(CNC(=O)c2cc(S(=O)(=O)N3CCC(C)CC3)cn2C)c1,inactive: 73%
22,CN(c1ccccc1)S(=O)(=O)c1nnc(NC(=O)c2ccco2)s1,inactive: 47%
